The record followed here is the BET-seq Pho4 binding data (Le et al. 2018).

Some of the results follow. The energies were worked out here from pooled read counts, against the library average; single values are noisy.

The target of the assay is T1, Pho4 (S. cerevisiae) (UniProt P07270).
T1 sequence: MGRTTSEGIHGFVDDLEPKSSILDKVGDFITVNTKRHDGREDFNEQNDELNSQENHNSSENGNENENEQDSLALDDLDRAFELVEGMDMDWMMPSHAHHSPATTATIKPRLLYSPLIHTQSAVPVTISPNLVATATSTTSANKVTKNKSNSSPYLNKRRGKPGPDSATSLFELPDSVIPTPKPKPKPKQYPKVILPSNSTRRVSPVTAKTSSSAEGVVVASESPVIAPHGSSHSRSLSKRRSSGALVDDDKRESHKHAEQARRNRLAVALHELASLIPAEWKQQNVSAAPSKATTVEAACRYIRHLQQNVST
Description: relative binding free energy (BET-seq); higher = weaker binding. Particulars: reference: library average.
Turning to TGGGACACGTGCGAGA, the “relative binding free energy” value was 0.03 kcal/mol.
GGTCGCACGTGATAGG: the “relative binding free energy” value is 0.19 kcal/mol.
In the case of GGTCGCACGTGTGCTT, the “relative binding free energy” value turned out to be 0.03 kcal/mol.
The figure for CCGGGCACGTGGTGTT is -0.29 kcal/mol; for ACGGGCACGTGGCGTG it is -0.08 kcal/mol.
To TTTCACACGTGGGGTG belongs -0.2 kcal/mol; to TAATTCACGTGTACTG, 0.31 kcal/mol; to ATGCGCACGTGCGTTG, -0.19 kcal/mol.
The figure for TAGAACACGTGTTTTA is 0.02 kcal/mol.
Consider CTCGTCACGTGGATTT, for which the “relative binding free energy” value is 0.23 kcal/mol.
To TATTTCACGTGGACGT belongs 0.18 kcal/mol; to TTTGACACGTGTTATG, 0.04 kcal/mol; to CGTTTCACGTGGTCTG, 0.2 kcal/mol.
The figure for GGGGTCACGTGCATTT is 0.13 kcal/mol; for GTGCGCACGTGAATTT it is 0.24 kcal/mol.
On to ATGAGCACGTGGGGAG, for which the “relative binding free energy” value was -0.27 kcal/mol.
The figure for GCGGACACGTGGCGGC is 0.18 kcal/mol.
The figure for TATCACACGTGTAGTT is 0.06 kcal/mol.
The figure for GCGTTCACGTGAGGTA is 0.46 kcal/mol.
For the sequence TGTGCCACGTGTTGAA, the “relative binding free energy” value is -0.07 kcal/mol.
The figure for GTGTGCACGTGCAGGG is 0.04 kcal/mol; for TAATTCACGTGTGGCA it is 0.18 kcal/mol.
On to CCTGGCACGTGTGTTT, for which the “relative binding free energy” value was -0.1 kcal/mol.
The figure for TGGTCCACGTGGTACG is -0.06 kcal/mol; for CGTTTCACGTGATTGG it is 0.35 kcal/mol.
To AGTTGCACGTGGGCGG belongs -0.07 kcal/mol; to TGATACACGTGGGCTG, -0.08 kcal/mol.
The figure for ATGGGCACGTGGCTGC is -0.18 kcal/mol.
For the sequence GAGGTCACGTGAAGTT, the “relative binding free energy” value came out at 0.4 kcal/mol.
With TGAAGCACGTGCGTAG, the “relative binding free energy” value was -0.07 kcal/mol.
For ACGATCACGTGATGTT, the “relative binding free energy” value turned out to be 0.38 kcal/mol.
The figure for GGCGTCACGTGGTTAA is 0.03 kcal/mol.
The figure for GTTTGCACGTGTAGGC is 0.12 kcal/mol; for GTGATCACGTGTAATG it is 0.24 kcal/mol; for AATATCACGTGGTTGA it is 0.1 kcal/mol.
The figure for GGCGTCACGTGAGAGT is 0.39 kcal/mol; for TACGGCACGTGCTTGT it is -0.12 kcal/mol; for CTTGTCACGTGAGGCT it is 0.21 kcal/mol.
TCGGGCACGTGAGAGA: the “relative binding free energy” value came out at 0.2 kcal/mol.
The figure for TTTGTCACGTGGGCGG is -0.07 kcal/mol; for TATGTCACGTGGAGAC it is 0.15 kcal/mol; for TATATCACGTGATGAT it is 0.24 kcal/mol.
As for GGATGCACGTGCGGAT, the “relative binding free energy” value was -0.13 kcal/mol.
To TGGACCACGTGGGTTA belongs -0.13 kcal/mol.
To TAGGGCACGTGTGCGA belongs -0.06 kcal/mol; to CTCTACACGTGGGGGG, -0.12 kcal/mol.
Consider ATGTTCACGTGGGCCT, for which the “relative binding free energy” value was 0.07 kcal/mol.
With CAGATCACGTGATGGG, the “relative binding free energy” value came out at 0.28 kcal/mol.
The figure for AGTAGCACGTGCTAGT is -0.13 kcal/mol.
Take TGAGGCACGTGCCGTG: the “relative binding free energy” value is -0.26 kcal/mol.
To TGATGCACGTGCTTAT belongs 0 kcal/mol; to TAAGACACGTGAGCGT, 0.28 kcal/mol; to GGTGCCACGTGTCGTT, -0.07 kcal/mol.
As for TCTGGCACGTGAGTGA, the “relative binding free energy” value is 0.04 kcal/mol.
On to CGGGGCACGTGGTGCA, for which the “relative binding free energy” value was -0.24 kcal/mol.
The figure for GTGAACACGTGGTTGG is 0.03 kcal/mol.
The figure for GGATACACGTGCGGGA is 0.1 kcal/mol; for TATAACACGTGTGTTT it is -0.07 kcal/mol; for TGGTTCACGTGTAACT it is 0.25 kcal/mol.
The figure for ATTTTCACGTGTTCGC is 0.2 kcal/mol; for GGTTGCACGTGGCGGC it is -0.13 kcal/mol; for GTAGTCACGTGGGGGA it is -0.01 kcal/mol.
As to GCCGGCACGTGGTGTT, the “relative binding free energy” value is -0.07 kcal/mol.
The figure for GGATACACGTGGTATT is 0.01 kcal/mol; for TCTTGCACGTGGGGTT it is -0.23 kcal/mol; for ATTTGCACGTGTAGGT it is 0.1 kcal/mol.
The figure for GGCATCACGTGAGTCG is 0.46 kcal/mol; for AAGGACACGTGAGTGT it is 0.2 kcal/mol.
The figure for TTTGGCACGTGGTAGG is -0.07 kcal/mol.
Consider TTGAGCACGTGGTCAG, for which the “relative binding free energy” value is -0.15 kcal/mol.
The figure for AGAGTCACGTGGGGCT is 0.04 kcal/mol.
To AGTTCCACGTGAGGGC belongs 0.23 kcal/mol; to TACGGCACGTGATATG, 0.05 kcal/mol.
Regarding TGTGTCACGTGCATTT, the “relative binding free energy” value amounted to 0.2 kcal/mol.
To ATAGTCACGTGTAGGC belongs 0.15 kcal/mol; to ATGGGCACGTGTGTTG, -0.1 kcal/mol.
TCGTACACGTGTTGTA: the “relative binding free energy” value was 0.11 kcal/mol.
To AAGGTCACGTGATTGA belongs 0.08 kcal/mol; to ATTGGCACGTGGGCTC, -0.06 kcal/mol.
To ATGTGCACGTGTTACG belongs -0.04 kcal/mol; to TTGCGCACGTGTTTTG, -0.17 kcal/mol; to GTTCGCACGTGATGTT, 0.14 kcal/mol.
To AGTGGCACGTGGAATG belongs -0.04 kcal/mol; to AGATGCACGTGAAGTT, 0.25 kcal/mol; to TAGGTCACGTGTCGGC, 0.03 kcal/mol.
Regarding TGAGCCACGTGGGAGT, the “relative binding free energy” value is -0.08 kcal/mol.
The figure for GTCTTCACGTGTTGGT is 0.31 kcal/mol; for AGGTTCACGTGTTTGG it is 0.26 kcal/mol.
The figure for ATTTGCACGTGTCTAA is 0 kcal/mol.
TTAGCCACGTGTGTTG: the “relative binding free energy” value is -0.08 kcal/mol.
As for TGTAGCACGTGATCTA, the “relative binding free energy” value was 0.12 kcal/mol.
To TACGGCACGTGAGTGA belongs 0.15 kcal/mol; to TTTATCACGTGCTTCT, 0.11 kcal/mol; to AGAGGCACGTGTTGAT, -0.07 kcal/mol.
Take GTTCTCACGTGATGTA: the “relative binding free energy” value was found to be 0.4 kcal/mol.
On to GGTGCCACGTGAGTGA, for which the “relative binding free energy” value was 0.19 kcal/mol.
To TTTCTCACGTGTCGTT belongs 0.27 kcal/mol; to GGTGGCACGTGGAGAT, -0.02 kcal/mol; to CGTGGCACGTGGGCGT, -0.25 kcal/mol.
The figure for TTTGTCACGTGCTCGG is 0.04 kcal/mol.
The figure for CGGGACACGTGGCAGG is -0.06 kcal/mol.
On to GTAGTCACGTGCGTAA, for which the “relative binding free energy” value stood at 0.06 kcal/mol.
Consider AGTCTCACGTGTCATG, for which the “relative binding free energy” value amounted to 0.27 kcal/mol.
On to GGGTGCACGTGTAACT, for which the “relative binding free energy” value is 0.13 kcal/mol.
The figure for AGTTGCACGTGCGTAG is -0.04 kcal/mol.
For the sequence GTCTTCACGTGAGGGT, the “relative binding free energy” value amounted to 0.4 kcal/mol.
The figure for AGATACACGTGTTTTG is -0.06 kcal/mol.
To TCTGGCACGTGATGTT belongs -0.06 kcal/mol.
To GGGTACACGTGTTTGC belongs 0.18 kcal/mol; to GAAGACACGTGTAGGG, 0.02 kcal/mol.
As for CTATTCACGTGTGCGT, the “relative binding free energy” value was determined as 0.25 kcal/mol.
The figure for GTGAGCACGTGTTCAT is -0.04 kcal/mol.
As for TGTTTCACGTGACTTT, the “relative binding free energy” value turned out to be 0.32 kcal/mol.
The figure for CGTTGCACGTGGAGAT is 0.02 kcal/mol; for GGTCGCACGTGAAGTA it is 0.25 kcal/mol.
